Reference: the supplement of paper PMC12632987
In all, about 1,800 sequences were measured (“median log2 fold change of GCK-ALFA target abundance (FLAG IP / Myc IP barcode read proportion)”: median about 0.14, lowest 2% from about -0.84 on). This is one part of the list.

B1: traf2_out_12_187_953 (protein)
chain: SVKEELLKAAEAAVKQALKKLEKYAAENPEVQELLKKLKELEKLLKKHPEIAADLLVAASKIIRYMDLLEEGAPQEQIDAALAAAKAALDDALAEAKKLE
B2: traf2_out_18_167_1874 (protein)
chain: SAELEARYQAATDALVEYSAIRRHLLLALEALRESREAALAVLEAALAEFPDSEVLREALRVARERSDEELRAFLEEKAEELQRKANERYKELEALRKEL
B3: traf2_out_1_27_1004 (protein)
chain: STEEERELLRRANREIGRASPEERVEVIVRALEEALARGLESPEHIAVVLILSLGEEEERRRAIEAAEEVLRAAGVSEEAIERMRRRVESGWARLDKLLA
B4: traf2_out_17_162_1652 (protein)
chain: SELEEKKKELEERLKELRERTEELRKKLEKIEEYSKEELSDLMVEASEVKREALEALQEIDELEPLLDPEEAKKWKEELERIIEEAQRIANAFYKQYEAK
B5: traf2_out_17_178_1668 (protein)
chain: DKEEYRKKISEYTDKLIDLTEETGRRLLALAEAEGRLSPEELALLRAAIRSGSANTLLAVAERLAPKLSSAAEAQALLDAFRKEKKELSKKIAEAYKKYE
B6: traf2_out_5_63_2357 (protein)
chain: SEREELTALAREADRLARELLEAARAGDEERVEELLERAAEDPELARLVLGILKGEAKYYKLLGTDPENAKIAEELARRLEELMRRREAAAAAAAAAAAA
B7: traf2_out_20_3_2127 (protein)
chain: EELEKELEKELEKAIKLLEEAAKLASPETAKKLLELAKKLEESRELSPEDRLVEVSAIRREVLALAQEAAAAGDEELAAVLEKAADALNRAMQLLYKIIE
B8: traf2_out_14_149_1230 (protein)
chain: SHMAELLKKAAELTEKIAETLKEVLKLLEAGKLEEAKALLEKSIEELKKESEESGVTVSTLFELEDLLALLKSDPSKAKEAAERALKRAEERAEALKEMA
B9: traf2_out_20_3_2208 (protein)
chain: EELEKELEKELDEALALLKEAQKLADPETAKVLDALIKRLKASRELSYEDRLVELSEIRREVLLLQQQALAAGNKELAAVLAEAADKIQKAMNLVYKIIE
B10: traf2_out_13_95_1065 (protein)
chain: SLETAKKINELAEKAEERALALLDAARAELADDPEAVAALDEARAALETRGIRAAIDVLRRARAAHPEHAAEFDALIAELEAIRRELGREVAKILKEEKE
B11: traf2_out_20_3_2090 (protein)
chain: EELEKKLEEALEEAEKLLKEAIKLADPETAERLKKLLERLKKARELPLEDRLVELSEVRRELLELAEEARAAGREELAALLEEAADKVNRAMNLAYKIIE
B12: traf2_out_1_27_1026 (protein)
chain: SENERLKEVNRLTTELLADPSRTVAEIAEAVVESMRDLDLGTVRHALLVALSMVPLEQRREFALAAAEAAARILGLSPEEVAALRELLLSAVEREEKALA
B13: traf2_out_17_178_1680 (protein)
chain: TKEEERKKISEYTDKLIDLTEETGTALLARAEADGTLSPEELAALRAAIRAGSNRTFLALAERAAPRLADAAAAQAALDAFKKEAAELNKKIAEAYKKYE
B14: traf2_out_13_95_1213 (protein)
chain: SAEAKEKEREIANEYLDRAEAIIDALAAALAGDPAVQPDMDAIRHAFRNYGVNQAIALIREAAKRYPAHKELFDAAAEELEAVRREAGKKFAEIDKEAEA
B15: traf2_out_17_162_1493 (protein)
chain: SELEEKKKKLEKELKELKKKLKELEKKLENIEKLSKEELTDLLVEASELKRKARQLAEEYKKLLKKTGDKELEKLIKEAEELAERAQKIANKIYKEIEKK
B16: traf2_out_17_162_1513 (protein)
chain: SALEEELKKLKEELEKLKKKLEELEKKLKNLEKMSKEELTDLLVEASEARREARLLAEELRKLLPLIGKEEAEKLIKEAEEIAERLQKIANKIYKELEKK
B17: traf2_out_13_95_1177 (protein)
chain: SEETKKKINEIADEMIDKVVAVLDELSEKVKDDPEVKAKLDEIRETAVKKGISTAIHKLRELSKANPEHKELITEALEKIEEIRREAGKKVAEIIKEEEE
B18: traf2_out_11_169_885 (protein)
chain: EEKEKNRKFNDFALELNDKAKEELKAFALELAKKLGLDVKEVEKIFEENKNKSLSYLASALIEYFRKKGKEDAAEKVLEKYEELKDKINKEGTAKMKELE
B19: traf2_out_11_169_874 (protein)
chain: EEAEKNRKLNDFALELNDKAKEELKKFALELAKELGLDVEEVEKIFEENKNKSLSAVASALIRYFKSKGKEEAAEKILEKYEELKEEINKEMSKKIKELE

Target: T1, TRAF2, Q12933
T1 chain: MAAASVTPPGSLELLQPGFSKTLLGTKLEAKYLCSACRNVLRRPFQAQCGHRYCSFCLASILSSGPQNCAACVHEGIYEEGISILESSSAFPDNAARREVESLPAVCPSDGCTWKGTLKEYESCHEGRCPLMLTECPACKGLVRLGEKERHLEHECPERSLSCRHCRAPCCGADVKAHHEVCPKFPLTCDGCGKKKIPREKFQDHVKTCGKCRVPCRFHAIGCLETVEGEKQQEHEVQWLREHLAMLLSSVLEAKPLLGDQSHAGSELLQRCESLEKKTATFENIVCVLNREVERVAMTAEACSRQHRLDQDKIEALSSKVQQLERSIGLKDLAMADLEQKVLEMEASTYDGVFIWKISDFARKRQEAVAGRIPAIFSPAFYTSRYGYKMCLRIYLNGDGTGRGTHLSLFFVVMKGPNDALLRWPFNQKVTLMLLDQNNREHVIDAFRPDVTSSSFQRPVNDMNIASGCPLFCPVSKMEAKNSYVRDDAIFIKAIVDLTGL
Test: median log2 fold change of GCK-ALFA target abundance (FLAG IP / Myc IP barcode read proportion) (log2 ratio); each designed protein is fused to an ALFA-tag nanobody in HEK293 cells to bring the named protein to FLAG-tagged glucokinase (GCK); Myc marks an untargeted standard; higher = target protein stabilised (more abundant)
Settings: target protein: 3xFLAG-MCP-GCK-ALFA reporter; HEK293 landing pad (RPLP)
Outline: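 The readout is target abundance, the per-binder median log2 ratio of FLAG to Myc barcode read proportions. It came from HEK293 landing-pad cells carrying a recombined ALFA-nanobody-fused binder library, induced with 2 μg mL^−1 doxycycline and transfected with a plasmid for a FLAG-tagged target and a Myc-tagged standard. After 48 h, lysates were immunoprecipitated with anti-FLAG and anti-Myc, and circular RNA barcodes were reverse transcribed, amplified and sequenced. Each barcode needed a proportion of at least 10^−7 in both replicates and each binder at least 3 barcodes per replicate, a pseudocount of 10^−6 was added, and the replicates were pooled.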

B1 and B2 are within 0.2 log units of each other in “median log2 fold change” value: 0.409 for the first, 0.259 for the second.

Going from B3 to B4, the “median log2 fold change” value rises from 0.0667 to 0.392.

First: B5
Second: B6
The “median log2 fold change” value of the first is higher: 0.0161 for the first, -0.227 for the second.

Compared with B7, B8 is higher in “median log2 fold change” value: -0.168 for the first, 0.108 for the second.

Going from B9 to B10, the “median log2 fold change” value falls from 0.309 to -0.0137.

B11 and B12 are within 0.2 log units of each other in “median log2 fold change” value: 0.221 for the first, 0.333 for the second.

B13 and B14 are within 0.2 log units of each other in “median log2 fold change” value: 0.0759 for the first, 0.179 for the second.

B15 and B16 are within 0.2 log units of each other in “median log2 fold change” value: 0.47 for the first, 0.453 for the second.

Compared with B17, B18 is higher in “median log2 fold change” value: -0.19 for the first, 0.491 for the second.

For B19, the “median log2 fold change” value was -0.164.
